Source: publication PMC4336329 (PLoS ONE, 2015)
Among all 310,000 compounds or so, about 2,200 (0.71%) showed an effect of 50% or more. The effect is printed as a negative number. This is one part of the list.

Target: human ether-à-go-go-related gene (hERG) potassium channel (human, UniProt Q12809)
Test: primary screen, population patch clamp on CHO cells stably expressing hERG

human ether-à-go-go-related gene (hERG) potassium channel, sequence (Q12809 whole entry, looked up): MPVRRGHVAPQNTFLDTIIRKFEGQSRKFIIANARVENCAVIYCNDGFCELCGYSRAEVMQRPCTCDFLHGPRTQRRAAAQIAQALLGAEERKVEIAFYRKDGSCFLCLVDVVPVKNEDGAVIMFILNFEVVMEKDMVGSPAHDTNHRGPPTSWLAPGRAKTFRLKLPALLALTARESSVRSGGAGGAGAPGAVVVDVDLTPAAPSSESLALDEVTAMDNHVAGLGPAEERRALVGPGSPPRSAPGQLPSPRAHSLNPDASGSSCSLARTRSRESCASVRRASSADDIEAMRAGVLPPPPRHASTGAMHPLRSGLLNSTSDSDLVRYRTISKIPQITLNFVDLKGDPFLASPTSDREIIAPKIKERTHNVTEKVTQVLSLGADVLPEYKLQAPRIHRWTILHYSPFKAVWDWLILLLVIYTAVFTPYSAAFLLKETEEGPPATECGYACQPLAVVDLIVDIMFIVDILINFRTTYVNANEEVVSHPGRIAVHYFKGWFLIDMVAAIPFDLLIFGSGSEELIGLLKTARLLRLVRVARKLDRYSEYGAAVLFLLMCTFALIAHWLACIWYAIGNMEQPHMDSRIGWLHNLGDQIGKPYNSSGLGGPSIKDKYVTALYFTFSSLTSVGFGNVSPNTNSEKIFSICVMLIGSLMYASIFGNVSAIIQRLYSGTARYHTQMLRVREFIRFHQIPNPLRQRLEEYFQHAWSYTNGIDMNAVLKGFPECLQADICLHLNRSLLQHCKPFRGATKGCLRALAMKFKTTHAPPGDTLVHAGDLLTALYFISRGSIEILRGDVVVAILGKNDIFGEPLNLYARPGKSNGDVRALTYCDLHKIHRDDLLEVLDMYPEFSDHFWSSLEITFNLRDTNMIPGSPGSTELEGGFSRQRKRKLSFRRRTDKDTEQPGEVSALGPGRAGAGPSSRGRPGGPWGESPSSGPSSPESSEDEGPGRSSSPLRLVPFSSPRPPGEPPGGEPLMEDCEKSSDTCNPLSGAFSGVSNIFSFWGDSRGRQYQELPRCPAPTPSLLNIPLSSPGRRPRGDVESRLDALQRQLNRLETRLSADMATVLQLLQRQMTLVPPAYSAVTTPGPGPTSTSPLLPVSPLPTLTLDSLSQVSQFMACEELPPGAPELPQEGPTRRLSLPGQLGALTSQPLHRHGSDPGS

Compared with `CCN1CCN(C(=O)Cn2ncc3c2-c2ccccc2OC3)CC1`, `Nc1ccc(N2CCN(C(=O)c3ccco3)CC2)cc1` is higher in “hERG current change (%, negative = inhibition) at 1uM” value: 0.123% for the first, 14.5% for the second.

First: O=C(NCc1ccccn1)Nc1ccc(F)cc1F
Second: O=C(CCc1nc(-c2ccccc2F)no1)NCc1ccco1
The “hERG current change (%, negative = inhibition) at 1uM” value of the first is lower: 6.04% for the first, 8.26% for the second.

First: CCOc1ccc(N=C2NC(=O)S/C2=C\c2ccc(N(C)C)cc2)cc1
Second: COc1cccc(N=C2NC(=O)/C(=C/c3cc([N+](=O)[O-])ccc3O)S2)c1
The “hERG current change (%, negative = inhibition) at 1uM” value of the first is lower: -6.59% for the first, 5.39% for the second.

First: Cc1nc(NS(=O)(=O)c2ccccc2)sc1NC(=O)Nc1ccc(Cl)cc1
Second: CC(=O)Nc1ccc(NC(=O)CNC(=O)c2sc3ccccc3c2Cl)cc1
The “hERG current change (%, negative = inhibition) at 1uM” value of the first is higher: 8.65% for the first, 3.18% for the second.

Going from `CCS(=O)(=O)Nc1cc2c3c(c1)CCN3C(=O)CC2` to `CCOC(=O)c1ccc(NS(=O)(=O)c2c(N)[nH]c(=O)[nH]c2=O)cc1`, the “hERG current change (%, negative = inhibition) at 1uM” value rises from -6.92% to 6.79%.

Going from `COc1ccc(C(=O)CSc2nnc(CNC(=O)c3ccccc3)o2)cc1` to `O=C(Oc1ccccc1)c1ccc(NC(=O)c2ccco2)cc1`, the “hERG current change (%, negative = inhibition) at 1uM” value falls from 9.7% to 4.38%.

Going from `CCOC(=O)CN1C(=O)N[C@@H](c2ccco2)C(C(=O)OC)=C1C` to `CCOC(=O)C1=C(C)NC(SCC(=O)O)=C(C#N)C1c1ccco1` (stereo not shown), the “hERG current change (%, negative = inhibition) at 1uM” value falls from 19.5% to 1.04%.

First: COC(=O)[C@@]1(Cc2ccc(OC)cc2)[C@H]2c3cc(C(=O)N(C)C)n(C[C@H](O)CO)c3C[C@H]2CN1C(=O)c1ccccc1
Second: CCCn1c(C(O)c2ccc(OCC)cc2)nc2ccccc21 (stereo not shown)
The “hERG current change (%, negative = inhibition) at 1uM” value of the first is higher: 16.5% for the first, -9.82% for the second.

Compared with `NC(N)=NN=C1CCC(c2ccccc2)CC1` (stereo not shown), `CC1(C)C(c2ccccc2)=NC(c2ccccc2)N1O` (stereo not shown) is lower in “hERG current change (%, negative = inhibition) at 1uM” value: 19.2% for the first, -10.3% for the second.

Going from `c1coc(CNc2ncnc3[nH]ncc23)c1` to `Cc1ccc(NC(=O)/C=C/c2ccco2)nc1`, the “hERG current change (%, negative = inhibition) at 1uM” value falls from 18.2% to 15.4%.

First: Cc1ccc(Oc2ncccc2/C=N/O)cc1
Second: Cc1ccc(C)c(OCC(=O)O/N=C(\N)c2cccc([N+](=O)[O-])c2)c1
The “hERG current change (%, negative = inhibition) at 1uM” value of the first is lower: 6% for the first, 6.15% for the second.

Compared with `CC(=O)Nc1ccc(S(=O)(=O)Oc2ccccc2N2CCCCC2)cc1`, `CCOC(=O)c1ccc(NCn2c(=O)oc3ccccc32)cc1` is lower in “hERG current change (%, negative = inhibition) at 1uM” value: 5.56% for the first, -18.7% for the second.

Going from `CN(CCNC(=O)c1ccc(CS(=O)(=O)c2ccc(Br)cc2)o1)CCc1ccccc1` to `CC(c1nnc(SCC(=O)Nc2cc([N+](=O)[O-])ccc2F)n1Cc1ccccc1)N(C)C` (stereo not shown), the “hERG current change (%, negative = inhibition) at 1uM” value rises from -42% to -12.3%.

Going from `Cc1ccnc(NS(=O)(=O)c2ccccc2)c1` to `Cc1ccc(S(=O)(=O)Nc2c(C)cc(C)nc2Cl)cc1`, the “hERG current change (%, negative = inhibition) at 1uM” value falls from 14.6% to 7.26%.

Compared with `COc1cc(NC(=O)C2CSC3(C)CCC(=O)N23)c(OC)cc1Cl` (stereo not shown), `COC(=O)C1=CN(C)C=C(C(=O)OC)C1c1ccccc1Cl` is higher in “hERG current change (%, negative = inhibition) at 1uM” value: 12.1% for the first, 14% for the second.

Going from `Cc1ccc(S(=O)(=O)CC(=O)Nc2ncc([N+](=O)[O-])s2)cc1` to `Cc1cc(C(=O)OCC(=O)Nc2nccs2)c2ccccc2n1`, the “hERG current change (%, negative = inhibition) at 1uM” value falls from 22% to 1.2%.

Compared with `NC(=O)CC(NC(=O)Cc1cccc2ccccc12)c1ccc(NC2CCCCCC2)c([N+](=O)[O-])c1` (stereo not shown), `O=C(CCc1nnc(Cc2c[nH]c3ccccc23)o1)NC1CCCC1` is lower in “hERG current change (%, negative = inhibition) at 1uM” value: 5.16% for the first, -5.36% for the second.

Going from `CCCCC(=O)Nc1ccc(C(=O)NNC(=S)NC(=O)c2ccco2)cc1` to `CC(=O)Nc1ccc(C(=O)NCC(c2ccco2)N(C)C)cc1` (stereo not shown), the “hERG current change (%, negative = inhibition) at 1uM” value falls from 13.6% to 12.5%.

Compared with `CCOc1ccc2c(=O)c(Oc3ccccc3OCC)coc2c1`, `CCOC(=O)c1cc(-c2nnc(-c3ccc(Oc4ccccc4)cc3)o2)c(C)nc1C` is higher in “hERG current change (%, negative = inhibition) at 1uM” value: -0.023% for the first, 17.8% for the second.

First: COC(Cc1ccccc1N1CCCC1=O)OC
Second: COc1ccccc1/C=C1\NC(=S)N(CC2CCCO2)C1=O (stereo not shown)
The “hERG current change (%, negative = inhibition) at 1uM” value of the first is higher: 11.4% for the first, 2.49% for the second.

Compared with `Cc1n[nH]c(=O)c2c(NC(=O)CSc3ccccc3F)oc(C)c12`, `CCc1ccccc1NC(=O)CSc1nnc(-c2ccco2)n1N` is lower in “hERG current change (%, negative = inhibition) at 1uM” value: 15.6% for the first, 11.3% for the second.

First: O=C(Nc1cc(Cl)ccc1-n1cncn1)c1ccc(F)c(S(=O)(=O)N2CCOCC2)c1
Second: CC/C(=N\NC(=O)c1cccnc1)c1ccc2c(c1)OCCO2
The “hERG current change (%, negative = inhibition) at 1uM” value of the first is lower: -15.3% for the first, 5.62% for the second.

Going from `OCCC1CN(Cc2cccn2-c2cccnc2)CCN1CCc1ccccc1` (stereo not shown) to `Clc1ccccc1-c1ncc2ccccn12.O=C(O)C(=O)O`, the “hERG current change (%, negative = inhibition) at 1uM” value rises from -37.5% to 7.65%.

Compared with `CCC1(C)Cc2ccccc2-c2nc(NCCCO)n(C)c(=O)c21` (stereo not shown), `COc1ccc(NC(=O)Nc2sc(=S)n(C)c2C)cc1` is higher in “hERG current change (%, negative = inhibition) at 1uM” value: 6.68% for the first, 9.74% for the second.

Going from `Cc1ccc2nc(N3CCCCC3)c(C=O)c(=O)n2c1` to `O=c1c2cccnc2nc2n1CCCCC2`, the “hERG current change (%, negative = inhibition) at 1uM” value rises from 7.46% to 18.9%.

Compared with `COc1ccc(NC(=O)CCc2nnc3ccc(N4CCC(C)CC4)nn23)cc1`, `CCOC(=O)C1CCCN(C/C(O)=C(\C#N)c2nc(-c3ccccc3)cs2)C1` (stereo not shown) is lower in “hERG current change (%, negative = inhibition) at 1uM” value: 14.3% for the first, 8.83% for the second.

First: COc1ccccc1-c1ccc(/C=C2\C=CC(=O)O2)o1
Second: CC(NC(=O)c1ccccc1F)c1ccccc1 (stereo not shown)
The “hERG current change (%, negative = inhibition) at 1uM” value of the first is lower: 13.1% for the first, 15.3% for the second.

Going from `O=C(NC1CCCCC1)C(c1cc2c(cc1[N+](=O)[O-])OCO2)N1CCCCC1` (stereo not shown) to `CCc1cc(=O)oc2cc(OC(=O)CN3C(=O)NC4(CCCC4)C3=O)ccc12`, the “hERG current change (%, negative = inhibition) at 1uM” value rises from 3.05% to 11.3%.

Going from `Brc1cc(Br)c(Oc2cc(Br)c(Br)cc2Br)cc1Br` to `CC(=O)NC(CCS(C)(=O)=O)C(=O)Nc1c(F)cccc1F` (stereo not shown), the “hERG current change (%, negative = inhibition) at 1uM” value falls from 12.3% to 0.8%.
